Measurements taken from PubChem BioAssay AID485344 (National Center for Advancing Translational Sciences (NCATS), 2010).
Screen size: about 340,000 compounds; about 6,900 (2%) were called active. Cut-off read from the data, not from the text of the source: active = inhibition above about 30%; inactive = below that, where a call was filed. The entries are a selection whose mix differs from that of the whole data set. Where no call is shown, the source filed none.

molecular target: D(2) dopamine receptor (Homo sapiens) (UniProt P14416); assay: HTS Assay for Allosteric Antagonists of the Human D2 Dopamine Receptor: Primary Screen for Antagonists; details: HEK293 TREx D2 cells, calcium flux, dopamine EC80; at 10 µM; stronger effect = higher value; note: 0% is about no effect
Method in brief: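 In this primary screen, negative modulation is detected by tracking calcium flux after an EC80 dopamine challenge in inducible HEK293 T-REx D2 cells preexposed to test compound for 180 s.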

UniProt P14416, sequence (P14416 whole entry, looked up): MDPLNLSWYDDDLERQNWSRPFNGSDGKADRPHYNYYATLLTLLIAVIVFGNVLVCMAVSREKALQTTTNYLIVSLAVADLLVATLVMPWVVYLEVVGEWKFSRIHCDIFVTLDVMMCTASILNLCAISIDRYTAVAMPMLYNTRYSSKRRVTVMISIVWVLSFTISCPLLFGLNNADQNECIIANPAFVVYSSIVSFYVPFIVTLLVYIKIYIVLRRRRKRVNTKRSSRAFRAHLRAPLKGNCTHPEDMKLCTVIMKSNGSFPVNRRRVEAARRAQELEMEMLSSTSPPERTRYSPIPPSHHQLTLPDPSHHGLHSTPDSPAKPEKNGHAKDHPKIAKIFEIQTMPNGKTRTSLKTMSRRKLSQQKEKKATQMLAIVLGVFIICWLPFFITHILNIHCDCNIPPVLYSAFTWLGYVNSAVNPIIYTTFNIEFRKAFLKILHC

In order of falling inhibition:
1. CC(=O)c1ccc(N2CCN(C(=O)CCC(=O)Nc3ccc4nc(N5CCCCC5)cc(C)c4c3)CC2)cc1  24.8%
2. CC(C)CN(CCCNC(=O)c1cc(=O)[nH]c2ccc(S(=O)(=O)N3CCCC3)cc12)CC(C)C  16.8%
3. Cc1cc(Br)ccc1NC(=O)C1CCCN(S(=O)(=O)c2cccc3nonc23)C1 (configuration not stated)  16.3%
4. CC(=O)c1ccc(NC(=O)CSc2nnc3ccc(-c4ccc(Br)cc4)nn23)cc1  15.6%
5. Cc1ccc(CNC(=O)CCCCCn2c(=O)c3sccc3n(CC(=O)Nc3ccc(C)c(F)c3)c2=O)cc1  14.9%
6. O=C(CCN1C(=O)c2ccccc2Sc2ncccc21)Nc1ccc(F)cc1F  13.7%
7. CCOc1ccc(OCC(=O)NCCS(=O)(=O)N2CCN(c3ccccc3F)CC2)cc1  12.8%
8. COc1ccccc1CNC(=O)c1c(O)nc2c(C)cccn2c1=O  12.7%
9. COc1cccc(C(=O)NC(=NCCc2c[nH]c3ccc(OC)cc23)Nc2nc(C)cc(C)n2)c1  12.2%
10. COc1cc(Cl)c(C)cc1NC(=O)CSc1nc2c(c(=O)[nH]1)CCC2  11.5%
11. Cc1ccc(N2CC(c3nc(-c4ccc(Cl)cc4)no3)CC2=O)cc1F (configuration not stated)  11.2%
12. Cc1ccccc1Cc1c(C)nc2nc(SCC(=O)N(C)c3ccccc3)nn2c1C  10.8%
13. COc1ccc(S(=O)(=O)Nc2ccc(-c3ccc(N4CCCC4)nn3)cc2)cc1F  10.1%
14. Cc1ccc(CC(=O)Nc2ccc3c(c2)N(C)C(=O)c2ccccc2S3)cc1  9.45%
15. CC1CCN(S(=O)(=O)c2ccc3c(c2)c(=O)c(C(=O)NCCc2ccccc2)cn3C)CC1  9.4%
16. COc1ccc2c(c1)cc1c(=O)n(CC(=O)NC(C)C)nc(C)n12  9.02%
17. Cc1ccccc1C(=O)Nc1sc2c(c1C(=O)N1CCCCC1)CCC(C)C2 (configuration not stated)  8.42%
18. CN(c1ccc(F)cc1)S(=O)(=O)N1CCCC(C(=O)NCc2cccc(Br)c2)C1 (configuration not stated)  7.74%
19. COC(=O)CNC(=O)C1CCN(S(=O)(=O)c2cccc3nsnc23)CC1  7.52%
20. Cc1ccc(NC(=O)Cn2c(=O)n(Cc3nc(C)no3)c(=O)c3cc4c(cc32)OCO4)c(C)c1  7.27%
21. Cc1ccc(-c2cc(-c3coc4ccc(Cl)cc4c3=O)c3c(n2)-c2ccccc2OC3)cc1  7.15%
22. Cc1cc(-c2ccccc2)n2nc(-c3ccc(Cl)cc3)cc2n1  7%
23. Cc1ccc2oc(C(=O)Nc3ccc(S(=O)(=O)N(C)c4ccccc4)cc3)cc(=O)c2c1  6.76%
24. Cc1cc(N2CCC(C(=O)Nc3ccc(F)cc3C)CC2)n2nc(C)c(-c3ccc(Cl)cc3)c2n1  6.05%
25. COc1ccc(C2NC(=O)NC(C)=C2C(=O)Nc2ccccc2)cc1OC (configuration not stated)  6.05%
26. CCc1ccc(NCc2cc3cc4c(cc3n(CC(=O)Nc3ccccc3OC)c2=O)OCCO4)cc1  6.03%
27. Cc1sc2ncn(CC(=O)Nc3cccc(C(F)(F)F)c3)c(=O)c2c1S(=O)(=O)N1CCN(C)CC1  6.01%
28. O=C(Nc1nc2ccc(Cl)cc2s1)c1cc(=O)c2ccccc2o1  5.98%
29. COc1ccc(OC)c(NC(=O)CC2C(=O)NCCN2C(=O)C(F)(F)F)c1 (configuration not stated)  5.73%
30. CCc1ccc(NC(=O)CSc2nc3c(oc4ccccc43)c(=O)n2-c2cccc(C)c2)cc1  5.72%
31. CCOc1ccccc1C(=O)N(Cc1cc(OC)c(OC)c(OC)c1)c1ccccn1  5.25%
32. COc1ccc(-c2cn3nc(N4CCCC(C(=O)Nc5cccc(OC)c5)C4)sc3n2)cc1 (configuration not stated)  4.5%
33. O=C(C1CCC(Cn2c(=O)c3sccc3n(Cc3ccccc3)c2=O)CC1)N1CCCCC1 (configuration not stated)  4.47%
34. Cc1ccc(CNC(=O)C2CCN(S(=O)(=O)c3cccc4nonc34)CC2)cc1  3.76%
35. O=C(c1ccc2c(c1)N(Cc1ccccc1F)C(=O)c1ccccc1S2(=O)=O)N1CCc2ccccc21  3.54%
36. COc1ccccc1CNC(=O)CN(C)c1nn2c(=O)cc(C)nc2s1  3.2%
37. O=C(NCc1ccccc1Cl)c1cnc(N2CCOCC2)c2ccccc12  3.11%
38. CCc1ccc(NC(=O)C2CCCN2S(=O)(=O)c2ccc3c(c2)n(C)c(=O)c(=O)n3C)cc1 (configuration not stated)  2.66%
39. Cc1ccc(-n2c(=O)c3c(cnn3C)n(CC(=O)Nc3ccc(C)cc3C)c2=O)cc1  2.48%
40. COc1ccc(S(=O)(=O)NCCS(=O)(=O)N2CCN(c3ccccc3)CC2)cc1OC  2.09%
41. Cc1cc(NC(=O)Nc2nnc(N(C)C3CCCCC3)s2)ccc1Br  2.02%
42. Cc1nn(-c2ccccc2)c2c1cc1c(=O)[nH]c(=O)nc-1n2-c1cccc(Cl)c1  1.69%
43. N#Cc1nc(COc2cccc(Cl)c2)oc1NCCc1ccccc1  1.55%
44. CCOc1ccc(NC(=O)CCc2nc3cccnc3n2-c2ccccc2)cc1  1.21%
45. CCN(Cc1ccccc1)Cc1c(O)ccc2c(=O)c(-c3ccc(Cl)cc3)coc12  1.21%
46. CCn1c(=O)c2sccc2n2c(CCCC(=O)N3CCN(c4cccc(Cl)c4)CC3)nnc12  0.57%
47. CN(C)CCNC(=O)c1ccc2c(c1)NC(=O)C(CS(=O)(=O)Cc1cccc(Br)c1)N2 (configuration not stated)  0.261%
48. COc1ccc(C(=O)Nc2nc3n(n2)C(c2ccccc2)C=C(c2ccccc2)N3)cc1 (configuration not stated)  0.107%
49. Cc1ccc(C(=O)c2c(N)c(C(=O)Nc3ccccc3Cl)c3ccccn23)cc1  -0.0008%
50. Cc1ccc(Nc2sc(C(=O)c3ccccc3)c(N)c2C(=O)Nc2ccc(Cl)cc2)cc1  -0.113%
51. Cc1sc2c(c1C)c(=O)n(-c1ccc(Cl)cc1)c(=O)n2Cc1cc(=O)n2cc(Br)ccc2n1  -0.45%
52. COc1ccc(C(=O)N2CCC(c3nc4ccccc4s3)CC2)cc1Cl  -0.618%
53. Cc1ccc(S(=O)(=O)CCC(=O)Nc2ccc(OC(F)(F)F)cc2)cc1  -0.637%
54. COc1ccc(S(=O)(=O)NCCc2csc3nc(-c4cccc(C)c4)nn23)cc1F  -1.04%
55. COc1cccc(C(=O)N2c3ccc(C)cc3C(C)(c3ccccc3)CC2(C)C)c1 (configuration not stated)  -1.37%
56. Cc1ccc(NC(=O)c2oc3ccccc3c2NC(=O)c2ccc(F)c(F)c2)cc1  -1.89%
57. CCOC(=O)c1cccc(NC(=O)CC2C(=O)N(c3ccc(Cl)cc3)C(=O)N2C2CCCC2)c1 (configuration not stated)  -2.5%
58. CCCOc1ccc(C(=O)Nc2ccc3oc(-c4cccc(Cl)c4Cl)nc3c2)cc1  -2.55%
59. COc1ccccc1/C=C/c1nc(C#N)c(N2CCN(C)CC2)o1  -2.93%
60. CC(C)c1ccc(NC(=O)Cn2cc(S(=O)(=O)Cc3cccc(Cl)c3)c3ccccc32)cc1  -3.7%
61. Cc1cc(=O)c2cc(C(=O)Nc3ccc(C)c(C)c3)ccc2[nH]1  -3.92%
62. Cc1cccc(NC(=O)Cn2ncc3c4ccccc4n(Cc4ccccc4)c3c2=O)c1C  -4.24%
63. CC1=C(C(=O)Nc2ccc(C)cc2C)C(c2ccc([N+](=O)[O-])cc2)n2ncc(C(=O)Nc3ccc(F)cc3)c2N1 (configuration not stated)  -5.34%
64. CCN1C(C(=O)c2ccccc2)=C(OC(=O)COc2ccc(OC)cc2)c2ccccc2S1(=O)=O  -6.83%
65. O=C(CN1C(=O)COc2ccc(Cl)cc21)Nc1cccc(F)c1  -6.88%
66. CCc1ccccc1NC(=O)Cn1c(=O)n(CCCCCC(=O)NCc2ccc(C)cc2)c(=O)c2sccc21  -6.89%
67. COc1ccc(NC(=O)c2oc3ccccc3c2NC(=O)C23CC4CC(CC(C4)C2)C3)c(OC)c1  -7.99%
68. CCc1ccc(-c2cn3c(n2)sc2cc(C(=O)NCCC4=CCCCC4)ccc23)cc1  -8.15%
69. Cc1ccc2cccc(NC(=O)c3cccc4c(Cl)cccc34)c2n1  -9.26%
70. O=C(NCc1cccnc1)C(=O)NCC(c1cccnc1)N1CCN(c2ccc(F)cc2)CC1 (configuration not stated)  -9.33%
71. O=C(CCS(=O)(=O)c1nc(-c2cccs2)cc(C(F)(F)F)n1)Nc1cc(Br)ccc1O  -9.87%
72. CCOC(=O)c1ccc(NC(=O)CSc2cn(CC(=O)N3CCCC3)c3ccccc23)cc1  -10.4%
73. Cc1c(C(=O)N2CCC(C)CC2)c(S(=O)(=O)NCc2ccc(Cl)cc2)c(C)n1C  -10.6%
74. Cc1ccc(C)c(N2CCN(C(=O)CCNS(=O)(=O)c3ccc4c(c3)CCN4C(=O)C3CC3)CC2)c1  -10.8%
75. CCc1cccc(CC)c1NC(=O)C(Cc1ccccc1)NS(=O)(=O)c1cccc2nsnc12 (configuration not stated)  -13.1%
76. CCc1ccc(S(=O)(=O)c2nnn3c2nc(N2CCOCC2)c2sccc23)cc1  -13.6%
77. COc1ccccc1NC(=O)CSc1nnc(NC(=O)NC2CCCCC2)s1  -13.9%
78. CCCCN1C(=O)c2[nH]nc(-c3ccccc3O)c2C1c1ccc(OCc2ccccc2)cc1 (configuration not stated)  -15.2%
79. CCOCCCNC(=O)c1cc(Sc2cccc(Cl)c2)nc2ccccc12  -15.4%
80. Cc1ccc(-n2nc3c(N4CCCC(C(=O)NCc5ccc(Cl)cc5)C4)nnc(C)c3c2C)cc1 (configuration not stated)  -17.2%
81. COC(=O)c1ccc2c(c1)N(CC(=O)Nc1ccc(OC)c(Cl)c1)C(=O)c1ccccc1S2  -17.6%
82. CCOC(=O)c1ccc(NC(=O)C(Cc2ccccc2)N2Cc3ccccc3C2=O)cc1 (configuration not stated)  -18.4%
83. CCCn1c(SCc2nc(-c3ccccc3OCC)no2)nnc1-c1ccc(Cl)cc1  -19.8%
84. CN1CCc2c(sc(NC(=O)CSc3ccc(F)cc3)c2-c2nc3ccccc3s2)C1  -22.5%
85. COc1ccccc1NC(=O)CCC(=O)N1CC(C)Oc2ccc(C)cc21 (configuration not stated)  -23.2%
86. COc1ccc2c(c1)c(CC(=O)Nc1ccc(C(C)=O)cc1)c(C)n2C(=O)c1ccc(Cl)cc1  -26.9%
87. CCC(Sc1nc2ccncc2[nH]1)C(=O)Nc1cc(Cl)ccc1C (configuration not stated)  -28%

`CCOc1cc(/C=C2\SC(=S)N(Nc3ccccc3)C2=O)ccc1O` was tested, and the inhibition was active: 35.1%.
`C=C(C)c1cccc(C(C)(C)NC(=O)NC2CCN(Cc3ccccc3)CC2)c1` was tested, and the inhibition was active: 89.2%.
`COc1cccc2cc(C(=O)NCc3ccc(Cl)cc3)c(=N)oc12` was tested, and the inhibition was active: 106%.
In the case of `CCCCCc1c(C)nc(N2CCc3ccccc3C2)[nH]c1=O`, the inhibition is reported as active: 31.9%.
With `O=C(COC(=O)C1CCCCC1)Nc1ccc([N+](=O)[O-])cc1` the inhibition was active: 35.3%.
